# Some of the results follow. The energies were worked out here from pooled read counts, against the library average; single values are noisy.
# Target: T1, Pho4 (S. cerevisiae) (UniProt P07270)
# T1 sequence: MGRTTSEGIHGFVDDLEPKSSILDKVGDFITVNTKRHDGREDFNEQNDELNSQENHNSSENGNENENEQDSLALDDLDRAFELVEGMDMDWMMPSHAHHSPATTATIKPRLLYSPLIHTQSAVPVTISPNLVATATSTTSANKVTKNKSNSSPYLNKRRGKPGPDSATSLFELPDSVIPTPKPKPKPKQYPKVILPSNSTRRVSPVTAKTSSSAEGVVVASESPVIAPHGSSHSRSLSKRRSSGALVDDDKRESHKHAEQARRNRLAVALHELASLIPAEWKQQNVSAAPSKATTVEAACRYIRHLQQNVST
# Experiment: relative binding free energy (BET-seq); higher = weaker binding
# Conditions: reference: library average
row,Sequence,relative binding free energy
1,GGGTCCACGTGGGCGT,-0.1 kcal/mol
2,ATTGGCACGTGCAGTA,-0.28 kcal/mol
3,TTTTGCACGTGTATTT,0.03 kcal/mol
4,GGGGGCACGTGCGCGC,-0.29 kcal/mol
5,GTTCTCACGTGTATAT,0.22 kcal/mol
6,ATGTACACGTGGCTTG,-0.18 kcal/mol
7,TTGCGCACGTGGCGGT,-0.19 kcal/mol
8,TGCGGCACGTGGTTCA,-0.06 kcal/mol
9,ATCTTCACGTGAGTAT,0.37 kcal/mol
10,GGTTGCACGTGAATGC,0.15 kcal/mol
11,AGTGGCACGTGTCGAG,-0.14 kcal/mol
12,TTGGTCACGTGCATAG,0.11 kcal/mol
13,GGGTGCACGTGAAAGT,0.31 kcal/mol
14,TAGAGCACGTGCTGGT,-0.19 kcal/mol
15,CGCGTCACGTGTTTTT,0.12 kcal/mol
16,GGGTACACGTGGGAGA,0 kcal/mol
17,TTTGGCACGTGTTACT,0.02 kcal/mol
18,GTGTGCACGTGGTCTT,-0.09 kcal/mol
19,TAGCGCACGTGAGTGT,0.12 kcal/mol
20,TGTTTCACGTGGCGCA,0.09 kcal/mol
21,TTAGGCACGTGTGGCA,-0.09 kcal/mol
22,GATTGCACGTGTCGTG,0.05 kcal/mol
23,CTGGGCACGTGGGAGC,-0.31 kcal/mol

row,Sequence,relative binding free energy
1,CGAGTCACGTGGAGTG,0.07 kcal/mol
2,TAGGACACGTGGGTTC,-0.06 kcal/mol
3,AATGTCACGTGGAATT,0.18 kcal/mol
4,CGGGTCACGTGGACAG,0.18 kcal/mol
5,TATTACACGTGGCTGT,0 kcal/mol
6,AGTTTCACGTGGTTGT,0.22 kcal/mol
7,CTGGGCACGTGTTGTG,-0.17 kcal/mol
8,GGGGGCACGTGCCGGT,-0.29 kcal/mol
9,ATAAGCACGTGATTAT,-0.03 kcal/mol
10,TCATTCACGTGAGAGG,0.31 kcal/mol
11,TTGTGCACGTGCAGTC,-0.02 kcal/mol
12,GGTTTCACGTGCGGCT,0.2 kcal/mol
13,TAGAGCACGTGCGGGG,-0.12 kcal/mol
14,CGTTGCACGTGACGTG,0.08 kcal/mol
15,TTGTGCACGTGACTAT,0.1 kcal/mol
16,TGGGTCACGTGTTACA,0.16 kcal/mol
17,AATGTCACGTGGTATC,-0.06 kcal/mol
18,TGTCTCACGTGATTAT,0.22 kcal/mol
19,TTGTGCACGTGAAGAA,0.26 kcal/mol
20,CGTTGCACGTGGTGCA,-0.14 kcal/mol
21,AGTTCCACGTGGAGGA,0.11 kcal/mol
22,TGTTACACGTGATCGG,0.25 kcal/mol
23,ATGTTCACGTGGGTAA,0.19 kcal/mol

row,Sequence,relative binding free energy
1,AATTTCACGTGGGGTG,0.16 kcal/mol
2,TCTTGCACGTGTAATT,0.03 kcal/mol
3,ATCGACACGTGTGGTG,0.03 kcal/mol
4,GGATGCACGTGGGAAG,0.03 kcal/mol
5,AGTATCACGTGCTATG,0.02 kcal/mol
6,GGCGACACGTGTGGGG,0.1 kcal/mol
7,AATCGCACGTGCGGGG,-0.03 kcal/mol
8,TTGTCCACGTGTGGTT,0.1 kcal/mol
9,TAGGGCACGTGCGGCA,-0.21 kcal/mol
10,ATTTTCACGTGGGGTA,0.13 kcal/mol
11,TCGTTCACGTGTGCGT,0.27 kcal/mol
12,TGTGACACGTGACTTT,0.14 kcal/mol
13,GGCAGCACGTGATGGG,-0.01 kcal/mol
14,ATATCCACGTGAGGTG,0.14 kcal/mol
15,TTCTTCACGTGAAAGG,0.55 kcal/mol
16,GGCGGCACGTGTTGGA,-0.06 kcal/mol
17,CGTTACACGTGACGGT,0.27 kcal/mol
18,TGTTTCACGTGGCGGT,0.3 kcal/mol
19,AGATTCACGTGGGCTG,0.05 kcal/mol
20,GGATTCACGTGATGGC,0.4 kcal/mol
21,GGGCCCACGTGCGGTG,-0.13 kcal/mol
22,TTCATCACGTGTGGGC,0.25 kcal/mol
23,CTGGTCACGTGTGAAG,0.08 kcal/mol

row,Sequence,relative binding free energy
1,TGTTACACGTGTGCCG,0.15 kcal/mol
2,ATTGTCACGTGGCTCG,-0.07 kcal/mol
3,GAGAGCACGTGCGGGG,-0.15 kcal/mol
4,AGATTCACGTGTTGGG,0.32 kcal/mol
5,TTCGGCACGTGTCATG,0.04 kcal/mol
6,AAACACACGTGGTGTG,-0.01 kcal/mol
7,TATAGCACGTGCTGGT,-0.13 kcal/mol
8,GTGGCCACGTGGGCTA,-0.14 kcal/mol
9,TCGAGCACGTGATTGG,0.11 kcal/mol
10,AAATTCACGTGTGATT,0.16 kcal/mol
11,TAGCACACGTGTGTGT,0.09 kcal/mol
12,AGGGTCACGTGTTCCG,0.15 kcal/mol
13,TTGGGCACGTGTTGCA,-0.01 kcal/mol
14,TTTTGCACGTGAGTCA,0.22 kcal/mol
15,GGTCGCACGTGTCGTT,0.01 kcal/mol
16,GACATCACGTGGTGTG,0.08 kcal/mol
17,AGGGACACGTGATTGT,0.08 kcal/mol
18,TTTGGCACGTGACGAT,-0.07 kcal/mol
19,TTAGGCACGTGTCTTG,-0.22 kcal/mol
20,TTTGACACGTGACTAT,0.15 kcal/mol
21,TGTGGCACGTGTCGAG,-0.02 kcal/mol
22,AGGATCACGTGGATTT,0.22 kcal/mol
23,CGGGTCACGTGAGATT,0.47 kcal/mol

row,Sequence,relative binding free energy
1,TTAGGCACGTGGATAT,-0.1 kcal/mol
2,TTAATCACGTGTCATA,0.19 kcal/mol
3,TCGTTCACGTGATCGG,0.4 kcal/mol
4,AAGGACACGTGTGAAG,0.19 kcal/mol
5,ACTATCACGTGATGGG,0.2 kcal/mol
6,TTGGACACGTGGGGAC,-0.08 kcal/mol
7,TATTTCACGTGTGCCT,0.18 kcal/mol
8,GGATCCACGTGGGTAG,-0.06 kcal/mol
9,TTTCTCACGTGGACTT,0.32 kcal/mol
10,TACGGCACGTGTTTAT,0.02 kcal/mol
11,ATGGGCACGTGTAATT,-0.12 kcal/mol
12,TTTTGCACGTGTTTTA,-0.01 kcal/mol
13,AATGGCACGTGCTAGT,-0.01 kcal/mol
14,GTGGGCACGTGAGTAT,0.16 kcal/mol
15,CAGTTCACGTGGATGG,0.24 kcal/mol
16,ATGGTCACGTGGAACT,0.24 kcal/mol
17,CGTTGCACGTGTTGGA,0.03 kcal/mol
18,GAGGTCACGTGTTTGG,0.18 kcal/mol
19,TATTACACGTGGTAGT,0.16 kcal/mol
20,AATTCCACGTGTGTTT,0.12 kcal/mol
21,CTGCGCACGTGATTGT,0.15 kcal/mol
22,TTTTTCACGTGTGTTT,0.27 kcal/mol
23,GTGGTCACGTGTGCAG,0.04 kcal/mol
